The supplement of paper PMC13380429
The hits were mostly taken out for another list; the other results follow.

Test system: Vero E6 infected with SARS-CoV-2
Test: inhibition of SARS-CoV-2 cytopathic effect; higher = more antiviral protection, active = above 15
Conditions: 48 h

Measured: inhibition of SARS-CoV-2 cytopathic effect

Cc1ccccc1-n1c(Cn2nc(-c3cccc(O)c3)c3c(N)ncnc32)nc2cccc(C)c2c1=O
inactive: 1 nM -1.47% | 8.33 nM 0.65% | 100 nM 0.25% | 833.33 nM -1.41% | 10000 nM 2.73%

COc1cc(N2CCN(C(C)=O)CC2)ccc1Nc1ncc(Cl)c(Nc2ccc(N3CCN(C(C)=O)CC3)cc2OC)n1
inactive: 1 nM -0.98% | 8.33 nM 0.49% | 100 nM -0.8% | 833.33 nM 2.01% | 10000 nM 1%

O=C1NC(=O)c2c1c(-c1ccccc1)cc1[nH]c3ccc(O)cc3c21
inactive: 1 nM 2.07% | 8.33 nM 1.35% | 100 nM 2.47% | 833.33 nM 6% | 10000 nM -1.83%

Cc1ccc(C(=O)NCCCCCC(=O)Nc2ccccc2N)cc1
inactive: 1 nM -1.61% | 8.33 nM -0.58% | 100 nM -1.18% | 833.33 nM 2.18% | 10000 nM 1.85%

CN1C2CCC1CC(OC(=O)C(O)c1ccccc1)C2 (stereo not given) [Homatropine Bromide]
inactive: 1 nM 1.2% | 8.33 nM -1.64% | 100 nM -3.44% | 833.33 nM -1.43% | 10000 nM -0.28%

Cc1nc2c(-c3cnc(N)nc3)nc(N3CCOCC3)nc2n1C(C)C
inactive: 1 nM 2.51% | 8.33 nM 0.28% | 100 nM 3.48% | 833.33 nM -5.92% | 10000 nM -13.3%

CCC(C)C(C(=O)OCC[N+](C)(CC)CC)c1ccccc1 (stereo not given) [valethamate]
inactive: 1 nM 2.32% | 8.33 nM 0.57% | 100 nM 3.26% | 833.33 nM -0.11% | 10000 nM 3.21%
